Data published in PubChem BioAssay AID1508642 (National Center for Advancing Translational Sciences (NCATS), 2021).
Out of some 43,000 compounds screened, about 200 (0.47%) were called active. Another 12% or so got no clear call; they are omitted. The call rests on the fitted dose curve; in most records, active means well fitted cell-killing curve with a large enough effect; inconclusive means small, poorly fitted or top-dose-only effect, or effect the other way; inactive means flat fitted curve, though single readings scatter. This is one part of the list.

Assay: Cell viability qHTS assay in S16 Pmp22-F2sN cells; further: nearly all actives have a fitted effect of over 65% in size
Details: S16 Pmp22-F2sN Schwann cells (luciferase reporters placed in the Pmp22 gene) viability, CellTiter-Glo, 24 h; series mostly up to 57.5 µM; activity change, negative = cytotoxicity: at the top concentration
How it was run: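 S16 Schwann cells carrying the Pmp22-F2sN reporter, seeded in 1536-well format, were exposed to library compounds for 24 h at 37C. Viability was read as CellTiter-Glo luminescence after 15 min at room temperature.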
On the % scale 0 is the no-effect control and ±100 the full control effect.

| Compound | activity change, negative = cytotoxicity |
| --- | --- |
| Cc1cccc(NC(=O)C2CCCN(S(=O)(=O)c3ccc4c(c3)oc(=O)n4C)C2)c1C (stereo not given) | inactive: 3.18% |
| CCc1ccccc1NC(=O)CN1C(=O)C2CCCN2c2ccc(S(=O)(=O)N(CC)CC)cc21 (stereo not given) | inactive: -10.3% |
| COc1cccc(N2C(=O)C(CC(=O)Nc3ccccc3)N(CCc3sccc3C)C2=O)c1 (stereo not given) | inactive: -17% |
| Cc1ccccc1C(=O)Nc1ccccc1OCc1cc(=O)n2ccccc2n1 | inactive: 8.09% |
| Cc1ccc(C(=O)NCC(c2ccc3c(c2)OCO3)N2CCN(c3ccc(F)cc3)CC2)cc1 (stereo not given) | inactive: 7.52% |
| CCOc1ccccc1NC(=O)Cn1c(=O)n(Cc2nc(C)no2)c(=O)c2ccccc21 | inactive: 2.65% |
| Clc1ccccc1CNc1ncnc2c1nc1n2CCCC1 | inactive: -4.8% |
| Cc1cccc(-c2nc(S(=O)(=O)c3ccc(Cl)cc3)c(N3CCCCCC3)o2)c1 | inactive: -1.18% |
| Cc1cccc(CS(=O)(=O)Cc2ccc(C(=O)NCc3ccccc3)o2)c1 | inactive: -15.3% |
| CCOc1ccc(C2CC(=O)NC(NC(=O)c3ccc(C)cc3)=N2)cc1 (stereo not given) | inactive: -2.02% |
| COc1ccc(NC(=O)Cn2c(=O)n(CCC(C)C)c(=O)c3cccnc32)cc1Cl | inactive: 0.833% |
| COc1cccc(-c2nc(SCC(=O)NCC3CCCO3)c(-c3ccc(C)cc3)[nH]2)c1 (stereo not given) | inactive: 0.244% |
| Cc1ccc(OCC(=O)N(Cc2ccc(Cl)cc2)Cc2ccco2)cc1C | inactive: 8.14% |
| CCOc1ccc(NC(=O)c2cc3c(C)nn(-c4ccccc4)c3s2)cc1 | inactive: -6.76% |
| Cc1cc(C)cc(NC(=O)c2cc(C)nc3c2c(C)nn3-c2ccccc2)c1 | inactive: 2.91% |
| Cc1cccc(Cn2cc(/C=C(/C#N)C(=O)Nc3cccc(Cl)c3)c3ccccc32)c1 | inactive: 7.7% |
| Cc1ccc(Cn2c(C(=O)O)c(CNC3CCCCC3)c3ccc(C)cc32)cc1 | inactive: 9.83% |
| CCN(C(=O)c1cc2c(=O)oc3ccccc3c2s1)c1ccc(C)c(C)c1 | inactive: 22.9% |
| CC(C)NC(=O)C1CCC(Cn2c(=O)c3sccc3n(CC(=O)N3CCCC3)c2=O)CC1 (stereo not given) | inactive: 2.49% |
| COc1ccc(NC(=O)c2ccc3c(=O)n4nc(Nc5ccccc5C)sc4nc3c2)cc1Cl | inactive: -4.55% |

| Compound | activity change, negative = cytotoxicity |
| --- | --- |
| Cc1ccccc1Nc1cc(C(=O)NC2CCCC2)c2ccccc2n1 | inactive: 6.28% |
| Cc1nn(-c2ccccc2)c(OC(=O)c2cccc(Br)c2)c1S(=O)(=O)c1ccccc1 | inactive: 13.9% |
| COc1cc(CNC(=O)c2sc3ncccc3c2-n2cccc2)cc(OC)c1OC | inactive: -11.5% |
| COc1cccc(C2CC(=O)Nc3cc(OC)c(OC)c(OC)c32)c1OC(C)C (stereo not given) | inactive: -2.46% |
| Cc1cccc(Cn2c(=O)n(CC3CCC(C(=O)NC(C)C)CC3)c(=O)c3sccc32)c1 (stereo not given) | inactive: 9.25% |
| CSc1ccc(CCNC(=O)C2=C(C)C(=O)OC23CCCCC3)cc1 | inactive: 12.1% |
| Cc1cccc(N2CCN(C(=O)Cn3ncc4c3-c3cc(C)ccc3OC4)CC2C)c1 (stereo not given) | inactive: -1.93% |
| COC(=O)c1ccc(OCC2c3cc(OC)c(OC)cc3CCN2C(=O)c2ccccc2C)cc1 (stereo not given) | inactive: -1.92% |
| Cc1nc(N2CCCC2)c2c(C(=O)N3CCN(c4ccc(F)cc4)CC3)c(C)oc2n1 | inactive: 3.16% |
| Cc1cc(C)c(NC(=O)CCN2C(=O)c3ccccc3Sc3ncccc32)c(C)c1 | inactive: 0.484% |
| Cc1nc2cc(C(=O)NCCC3=CCCCC3)ccc2n1-c1ccc(Br)cc1 | inactive: 5.92% |
| CCc1nn(CC(=O)NCC(C)c2ccccc2)c(=O)c2cc3occc3n12 (stereo not given) | inactive: -0.943% |
| CCOc1ccc(C(=O)NCc2nnnn2-c2ccc(C)c(C)c2)cc1OCC | inactive: 4.28% |
| CCOC(=O)CNC(=O)CSc1cn(CC(=O)N2CCCCCC2)c2ccccc12 | inactive: 23.4% |
| CN(Cc1ccccc1)C(=O)C1CCN(S(=O)(=O)c2ccc3c(c2)oc(=O)n3C)CC1 | inactive: 8.63% |
| O=C1COc2ccc(-c3cc(-c4ccc(Cl)cc4)c4c(n3)-c3ccccc3OC4)cc2N1 | inactive: 14.1% |
| Cc1cccc(C(=O)Nc2nnc(S(=O)(=O)N(C)Cc3ccc(Cl)cc3)s2)c1 | inactive: 2.56% |
| COC(=O)c1cc2c(cc1NC(=O)c1cnn(-c3ccccc3)c1-n1cccc1)OCO2 | inactive: -0.0131% |
| CSc1nc(Nc2ccc(C)cc2C)cc(-c2ccccc2)n1 | inactive: 12.6% |
| Cc1ccc2ncc(S(=O)(=O)c3ccccc3)c(N3CCCCC3C)c2c1 (stereo not given) | inactive: -20.3% |

| Compound | activity change, negative = cytotoxicity |
| --- | --- |
| COc1ccc(C2=NC3(CCCCCC3)N(CC(=O)Nc3ccc(C)c(C)c3)C2=O)cc1 | inactive: -20.5% |
| CCn1c(C)c(C)c2cc(C(=O)NCc3ccc(N(C)C)cc3)ccc21 | inactive: 3.22% |
| COc1ccc(CNC(=O)CN(c2cc(C(F)(F)F)ccc2Cl)S(C)(=O)=O)cc1 | inactive: 13.7% |
| Cc1ccc(C(=O)c2oc3ccccc3c2NC(=O)c2cc(-c3ccc(Cl)cc3)on2)cc1 | inactive: -4.23% |
| COc1ccc(Cl)cc1NC(=O)Cn1ncc2c3ccccc3n(Cc3ccccc3)c2c1=O | inactive: 8.7% |
| CC(=O)c1cccc(NC(=O)c2sc(-n3nc(C)c(CCC(C)C)c3C)nc2C)c1 | inactive: -25.7% |
| Cc1nc(-c2ccc(S(=O)(=O)N3CCN(c4cccc(Cl)c4)CC3)cc2)co1 | inactive: 9.99% |
| COc1cc(NC(=O)Cn2c(=O)n(CC(=O)NCCc3ccc(OC)c(OC)c3)c(=O)c3sccc32)cc(OC)c1 | inactive: -3.59% |
| CSc1ccc(CNC(=O)Cc2csc3ccccc23)cc1 | inactive: 8.01% |
| CC(=O)NCCNc1nc2c(-c3cccc(C)c3)nnn2c2ccc(Cl)cc12 | inactive: 6.69% |
| COc1ccc(N2CC(NC(=O)Cc3cccs3)CC2=O)cc1 (stereo not given) | inactive: 0.126% |
| COc1cccc(Nc2sc(C(=O)c3ccc4c(c3)OCO4)c(N)c2S(=O)(=O)c2ccccc2)c1 | inactive: 16.7% |
| COc1ccc(-n2nnnc2C2CCN(S(=O)(=O)c3ccc(F)cc3Cl)CC2)cc1 | inactive: 5.58% |
| CC(=O)Nc1ccc(S(=O)(=O)NCC2CCC(C(=O)NCc3ccccc3Cl)CC2)cc1 (stereo not given) | inactive: 1.14% |
| CCSc1nnc2c(n1)OC(c1ccc(OC)cc1OC)N(C(C)=O)c1ccccc1-2 (stereo not given) | inactive: 0.996% |
| Cc1ccc(C2=NC(c3ccc(F)cc3)=Nc3ccc(C)cc3N2)cc1 | inactive: -7.46% |
| O=C(NC1CCCC1)c1cnn(-c2ccc(F)cc2F)c1C1CCNCC1 | inactive: -5.7% |
| Cc1ccc(S(=O)(=O)N2CCN(Cc3ccccc3)CC2)c(C)c1NS(C)(=O)=O | inactive: -7.8% |
| COc1ccc(Cl)cc1NC(=O)CSc1nc2c([nH]c3ccccc32)c(=O)n1-c1ccccc1 | inactive: 20.3% |
| Cc1cccc(Cn2c(=O)n(CCCCC(=O)NCc3ccc4c(c3)OCO4)c(=O)c3ccccc32)c1 | inactive: -2.19% |
